From the supplement of paper PMC11741623
The list shows a part of the results. Interaction screen of human proteins with wild-type SARS-CoV-2 proteins by split-DHFR complementation in yeast, 1 µg/mL methotrexate. Value = fitness of the pair (three or more lineages) minus that of the viral protein without a human partner, on a scale set by negative (0) and fused positive (1) controls, mean of up to three cultures; higher = more likely to interact. Active = false discovery rate below 0.05 (one-sided t-test) in at least one culture. Nearly all pairs are not hits, and differences among them are mostly noise (correlation between cultures about 0.3); most hits were seen in one culture only. Human sequences are the Swiss-Prot entries looked up by gene name; the clone may be another isoform. NSP2 values were corrected by the authors for a growth advantage. Listed are human proteins with a hit and a random twelfth of the others.

B1: ISLR, O14498 (protein)
chain: MQELHLLWWALLLGLAQACPEPCDCGEKYGFQIADCAYRDLESVPPGFPANVTTLSLSANRLPGLPEGAFREVPLLQSLWLAHNEIRTVAAGALASLSHLKSLDLSHNLISDFAWSDLHNLSALQLLKMDSNELTFIPRDAFRSLRALRSLQLNHNRLHTLAEGTFTPLTALSHLQINENPFDCTCGIVWLKTWALTTAVSIPEQDNIACTSPHVLKGTPLSRLPPLPCSAPSVQLSYQPSQDGAELRPGFVLALHCDVDGQPAPQLHWHIQIPSGIVEITSPNVGTDGRALPGTPVASSQPRFQAFANGSLLIPDFGKLEEGTYSCLATNELGSAESSVDVALATPGEGGEDTLGRRFHGKAVEGKGCYTVDNEVQPSGPEDNVVIIYLSRAGNPEAAVAEGVPGQLPPGLLLLGQSLLLFFFLTSF
B2: KCTD12, Q96CX2 (protein)
chain: MALADSTRGLPNGGGGGGGSGSSSSSAEPPLFPDIVELNVGGQVYVTRRCTVVSVPDSLLWRMFTQQQPQELARDSKGRFFLDRDGFLFRYILDYLRDLQLVLPDYFPERSRLQREAEYFELPELVRRLGAPQQPGPGPPPSRRGVHKEGSLGDELLPLGYSEPEQQEGASAGAPSPTLELASRSPSGGAAGPLLTPSQSLDGSRRSGYITIGYRGSYTIGRDAQADAKFRRVARITVCGKTSLAKEVFGDTLNESRDPDRPPERYTSRYYLKFNFLEQAFDKLSESGFHMVACSSTGTCAFASSTDQSEDKIWTSYTEYVFCRE
B3: MLPH, Q9BV36 (protein)
chain: MGKKLDLSKLTDEEAQHVLEVVQRDFDLRRKEEERLEALKGKIKKESSKRELLSDTAHLNETHCARCLQPYQLLVNSKRQCLECGLFTCKSCGRVHPEEQGWICDPCHLARVVKIGSLEWYYEHVKARFKRFGSAKVIRSLHGRLQGGAGPELISEERSGDSDQTDEDGEPGSEAQAQAQPFGSKKKRLLSVHDFDFEGDSDDSTQPQGHSLHLSSVPEARDSPQSLTDESCSEKAAPHKAEGLEEADTGASGCHSHPEEQPTSISPSRHGALAELCPPGGSHRMALGTAAALGSNVIRNEQLPLQYLADVDTSDEESIRAHVMASHHSKRRGRASSESQIFELNKHISAVECLLTYLENTVVPPLAKGLGAGVRTEADVEEEALRRKLEELTSNVSDQETSSEEEEAKDEKAEPNRDKSVGPLPQADPEVGTAAHQTNRQEKSPQDPGDPVQYNRTTDEELSELEDRVAVTASEVQQAESEVSDIESRIAALRAAGLTVKPSGKPRRKSNLPIFLPRVAGKLGKRPEDPNADPSSEAKAMAVPYLLRRKFSNSLKSQGKDDDSFDRKSVYRGSLTQRNPNARKGMASHTFAKPVVAHQS
B4: PHYHIP, Q92561 (protein)
chain: MELLSTPHSIEINNITCDSFRISWAMEDSDLERVTHYFIDLNKKENKNSNKFKHRDVPTKLVAKAVPLPMTVRGHWFLSPRTEYSVAVQTAVKQSDGEYLVSGWSETVEFCTGDYAKEHLAQLQEKAEQIAGRMLRFSVFYRNHHKEYFQHARTHCGNMLQPYLKDNSGSHGSPTSGMLHGVFFSCNTEFNTGQPPQDSPYGRWRFQIPAQRLFNPSTNLYFADFYCMYTAYHYAILVLAPKGSLGDRFCRDRLPLLDIACNKFLTCSVEDGELVFRHAQDLILEIIYTEPVDLSLGTLGEISGHQLMSLSTADAKKDPSCKTCNISVGR
B5: RBBP7, Q16576 (protein)
chain: MASKEMFEDTVEERVINEEYKIWKKNTPFLYDLVMTHALQWPSLTVQWLPEVTKPEGKDYALHWLVLGTHTSDEQNHLVVARVHIPNDDAQFDASHCDSDKGEFGGFGSVTGKIECEIKINHEGEVNRARYMPQNPHIIATKTPSSDVLVFDYTKHPAKPDPSGECNPDLRLRGHQKEGYGLSWNSNLSGHLLSASDDHTVCLWDINAGPKEGKIVDAKAIFTGHSAVVEDVAWHLLHESLFGSVADDQKLMIWDTRSNTTSKPSHLVDAHTAEVNCLSFNPYSEFILATGSADKTVALWDLRNLKLKLHTFESHKDEIFQVHWSPHNETILASSGTDRRLNVWDLSKIGEEQSAEDAEDGPPELLFIHGGHTAKISDFSWNPNEPWVICSVSEDNIMQIWQMAENIYNDEESDVTTSELEGQGS
B6: ACPL2, Q8TE99 (protein)
chain: MLFRNRFLLLLALAALLAFVSLSLQFFHLIPVSTPKNGMSSKSRKRIMPDPVTEPPVTDPVYEALLYCNIPSVAERSMEGHAPHHFKLVSVHVFIRHGDRYPLYVIPKTKRPEIDCTLVANRKPYHPKLEAFISHMSKGSGASFESPLNSLPLYPNHPLCEMGELTQTGVVQHLQNGQLLRDIYLKKHKLLPNDWSADQLYLETTGKSRTLQSGLALLYGFLPDFDWKKIYFRHQPSALFCSGSCYCPVRNQYLEKEQRRQYLLRLKNSQLEKTYGEMAKIVDVPTKQLRAANPIDSMLCHFCHNVSFPCTRNGCVDMEHFKVIKTHQIEDERERREKKLYFGYSLLGAHPILNQTIGRMQRATEGRKEELFALYSAHDVTLSPVLSALGLSEARFPRFAARLIFELWQDREKPSEHSVRILYNGVDVTFHTSFCQDHHKRSPKPMCPLENLVRFVKRDMFVALGGSGTNYYDACHREGF
B7: YWHAQ, P27348 (protein)
chain: MEKTELIQKAKLAEQAERYDDMATCMKAVTEQGAELSNEERNLLSVAYKNVVGGRRSAWRVISSIEQKTDTSDKKLQLIKDYREKVESELRSICTTVLELLDKYLIANATNPESKVFYLKMKGDYFRYLAEVACGDDRKQTIDNSQGAYQEAFDISKKEMQPTHPIRLGLALNFSVFYYEILNNPELACTLAKTAFDEAIAELDTLNEDSYKDSTLIMQLLRDNLTLWTSDSAGEECDAAEGAEN

Each binder was assayed against SARS-CoV-2 NSP13 (assay: yeast fitness gain over the viral ORF with no human partner (scaled fitness); higher = more likely to interact).
Method: (§1)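 Split mouse DHFR complementation in pooled diploid yeast: human ORFeome clones carry one fragment and viral ORFs the other; barcoded lineages compete in 1 µg/mL methotrexate and fitness is read by barcode sequencing in up to three cultures.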
B1 was tested, and the yeast fitness gain was inactive: -0.149.
With B2 the yeast fitness gain was inactive: -0.37.
In the case of B3, the yeast fitness gain is reported as inactive: -0.342.
With B4 the yeast fitness gain was inactive: -0.0279.
For B5, the yeast fitness gain was inactive: -0.219.
In the case of B6, the yeast fitness gain is reported as inactive: -0.154.
B7 was tested, and the yeast fitness gain was inactive: -0.147.

The binders below were run against SARS-CoV-2 ORF6 in the same assay as above.
Method: as §1
With B1 the yeast fitness gain was inactive: -0.264.
In the case of B3, the yeast fitness gain is reported as inactive: -0.129.
With B5 the yeast fitness gain was inactive: -0.241.

What follows are binders tested against SARS-CoV-2 ORF7B in the same assay as above.
Method: as §1
For B1, the yeast fitness gain was inactive: -0.0188.
In the case of B4, the yeast fitness gain is reported as inactive: 0.134.

What follows are binders tested against SARS-CoV-2 ORF9B in the same assay as above.
Method: as §1
With B1 the yeast fitness gain was inactive: -0.14.
B4 was tested, and the yeast fitness gain was inactive: -0.00615.

These binders were tested against SARS-CoV-2 NSP7 in the same assay as above.
Method: as §1
For B2, the yeast fitness gain was inactive: -0.0271.

What follows are binders tested against SARS-CoV-2 NSP9 in the same assay as above.
Method: as §1
With B2 the yeast fitness gain was inactive: 0.0307.

What follows are binders tested against SARS-CoV-2 ORF8 in the same assay as above.
Method: as §1
With B2 the yeast fitness gain was inactive: 0.0162.

The binders below were run against SARS-CoV-2 NSP2 in the same assay as above.
Method: as §1
In the case of B4, the yeast fitness gain is reported as inactive: -0.121.
With B5 the yeast fitness gain was inactive: -0.28.
For B6, the yeast fitness gain was inactive: -0.356.

Each binder was assayed against SARS-CoV-2 NSP6 in the same assay as above.
Method: as §1
In the case of B4, the yeast fitness gain is reported as inactive: 0.0684.

The binders below were run against SARS-CoV-2 ORF3B in the same assay as above.
Method: as §1
For B4, the yeast fitness gain was inactive: 0.101.

What follows are binders tested against SARS-CoV-2 ORF7A in the same assay as above.
Method: as §1
B4 was tested, and the yeast fitness gain was inactive: 0.081.
B7 was tested, and the yeast fitness gain was inactive: -0.328.
